{
  "source": "the supplement of paper PMC8728848",
  "assay_in_all_cases": "glycan array binding signal (z-score within array); higher = stronger binding",
  "settings_in_all_cases": "glycan notation: IUPAC condensed, linker removed",
  "key": {"Gal(b1-2)Gal": {"molecular_target": "Gal(b1-2)Gal", "in_short": "(§1)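 From the Consortium for Functional Glycomics database, 3228 arrays were curated, keeping only those whose protein sequence was available. Binding is given as a within-array Z-score averaged across arrays sharing a protein sequence and across linkers. Negative Z-scores can be read as non-binding.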"}, "Gal(b1-3)Gal": {"molecular_target": "Gal(b1-3)Gal", "in_short": "as §1"}, "Gal(b1-3)Gal(b1-4)GlcNAc": {"molecular_target": "Gal(b1-3)Gal(b1-4)GlcNAc", "in_short": "as §1"}, "Gal(b1-3)GalNAc": {"molecular_target": "Gal(b1-3)GalNAc", "in_short": "as §1"}, "[1]": {"molecular_target": "Gal(b1-3)GalNAc(a1-3)[Fuc(a1-2)]Gal(b1-4)Glc", "in_short": "as §1"}, "[2]": {"molecular_target": "Gal(b1-3)GalNAc(a1-3)[Fuc(a1-2)]Gal(b1-4)GlcNAc", "in_short": "as §1"}, "Gal(b1-3)GalNAc(b1-3)Gal": {"molecular_target": "Gal(b1-3)GalNAc(b1-3)Gal", "in_short": "as §1"}, "[3]": {"molecular_target": "Gal(b1-3)GalNAc(b1-3)Gal(a1-4)Gal(b1-4)Glc", "in_short": "as §1"}, "[4]": {"molecular_target": "Gal(b1-3)GalNAc(b1-4)Gal(b1-4)Glc", "in_short": "as §1"}, "[5]": {"molecular_target": "Gal(b1-3)GalNAc(b1-4)[Neu5Ac(a2-3)]Gal(b1-4)Glc", "in_short": "as §1"}, "Gal(b1-3)GlcNAc": {"molecular_target": "Gal(b1-3)GlcNAc", "in_short": "as §1"}, "[6]": {"molecular_target": "Gal(b1-3)GlcNAc(a1-3)Gal(b1-4)GlcNAc", "in_short": "as §1"}, "[7]": {"molecular_target": "Gal(b1-3)GlcNAc(a1-6)Gal(b1-4)GlcNAc", "in_short": "as §1"}, "Gal(b1-3)GlcNAc(b1-2)Man": {"molecular_target": "Gal(b1-3)GlcNAc(b1-2)Man", "in_short": "as §1"}, "[8]": {"molecular_target": "Gal(b1-3)GlcNAc(b1-2)Man(a1-3)[Gal(b1-3)GlcNAc(b1-2)Man(a1-6)]Man(b1-4)GlcNAc(b1-4)GlcNAc", "in_short": "as §1"}, "[9]": {"molecular_target": "Gal(b1-3)GlcNAc(b1-2)Man(a1-3)[Gal(b1-3)GlcNAc(b1-2)Man(a1-6)]Man(b1-4)GlcNAc(b1-4)[Fuc(a1-6)]GlcNAc", "in_short": "as §1"}, "[10]": {"molecular_target": "Gal(b1-3)GlcNAc(b1-2)Man(a1-3)[GlcNAc(b1-4)][Gal(b1-3)GlcNAc(b1-2)Man(a1-6)]Man(b1-4)GlcNAc(b1-4)GlcNAc", "in_short": "as §1"}, "[11]": {"molecular_target": "Gal(b1-3)GlcNAc(b1-2)[Gal(b1-3)GlcNAc(b1-6)]Man(a1-6)[Gal(b1-3)GlcNAc(b1-2)Man(a1-3)]Man(b1-4)GlcNAc(b1-4)GlcNAc", "in_short": "as §1"}, "[12]": {"molecular_target": "Gal(b1-3)GlcNAc(b1-3)Gal(b1-3)GlcNAc", "in_short": "as §1"}, "[13]": {"molecular_target": "Gal(b1-3)GlcNAc(b1-3)Gal(b1-4)Glc", "in_short": "as §1"}, "[14]": {"molecular_target": "Gal(b1-3)GlcNAc(b1-3)Gal(b1-4)GlcNAc", "in_short": "as §1"}, "[15]": {"molecular_target": "Gal(b1-3)GlcNAc(b1-3)Gal(b1-4)GlcNAc(b1-2)Man(a1-3)[Gal(b1-3)GlcNAc(b1-3)Gal(b1-4)GlcNAc(b1-2)Man(a1-6)]Man(b1-4)GlcNAc(b1-4)GlcNAc", "in_short": "as §1"}, "[16]": {"molecular_target": "Gal(b1-3)GlcNAc(b1-3)Gal(b1-4)GlcNAc(b1-2)[Gal(b1-3)GlcNAc(b1-3)Gal(b1-4)GlcNAc(b1-6)]Man(a1-6)[Gal(b1-3)GlcNAc(b1-3)Gal(b1-4)GlcNAc(b1-2)Man(a1-3)]Man(b1-4)GlcNAc(b1-4)[Fuc(a1-6)]GlcNAc", "in_short": "as §1"}, "[17]": {"molecular_target": "Gal(b1-3)GlcNAc(b1-3)Gal(b1-4)GlcNAc(b1-3)Gal(b1-4)GlcNAc(b1-2)[Gal(b1-3)GlcNAc(b1-3)Gal(b1-4)GlcNAc(b1-3)Gal(b1-4)GlcNAc(b1-6)]Man(a1-6)[Gal(b1-3)GlcNAc(b1-3)Gal(b1-4)GlcNAc(b1-3)Gal(b1-4)GlcNAc(b1-2)Man(a1-3)]Man(b1-4)GlcNAc(b1-4)[Fuc(a1-6)]GlcNAc", "in_short": "as §1"}, "[18]": {"molecular_target": "Gal(b1-3)GlcNAc(b1-3)Gal(b1-4)GlcNAc(b1-6)[Gal(b1-3)GlcNAc(b1-3)]Gal(b1-4)Glc", "in_short": "as §1"}, "[19]": {"molecular_target": "Gal(b1-3)GlcNAc(b1-3)Gal(b1-4)[Fuc(a1-3)]GlcNAc", "in_short": "as §1"}, "[20]": {"molecular_target": "Gal(b1-3)GlcNAc(b1-3)Gal(b1-4)[Fuc(a1-3)]GlcNAc(b1-6)[Gal(b1-3)GlcNAc(b1-3)]Gal(b1-4)Glc", "in_short": "as §1"}, "[21]": {"molecular_target": "Gal(b1-3)GlcNAc(b1-3)GalNAc", "in_short": "as §1"}, "[22]": {"molecular_target": "Gal(b1-3)GlcNAc(b1-6)Gal(b1-4)GlcNAc", "in_short": "as §1"}, "[23]": {"molecular_target": "Gal(b1-3)GlcNAc(b1-6)GalNAc", "in_short": "as §1"}, "[24]": {"molecular_target": "Gal(b1-3)GlcNAc(b1-6)[Gal(b1-3)]GalNAc", "in_short": "as §1"}, "Gal(b1-3)GlcNAc6S": {"molecular_target": "Gal(b1-3)GlcNAc6S", "in_short": "as §1"}, "[25]": {"molecular_target": "Gal(b1-3)[Fuc(a1-4)]GlcNAc", "in_short": "as §1"}, "[26]": {"molecular_target": "Gal(b1-3)[Fuc(a1-4)]GlcNAc(b1-2)Man", "in_short": "as §1"}, "[27]": {"molecular_target": "Gal(b1-3)[Fuc(a1-4)]GlcNAc(b1-2)Man(a1-3)[Gal(b1-3)[Fuc(a1-4)]GlcNAc(b1-2)Man(a1-6)]Man(b1-4)GlcNAc(b1-4)[Fuc(a1-6)]GlcNAc", "in_short": "as §1"}, "[28]": {"molecular_target": "Gal(b1-3)[Fuc(a1-4)]GlcNAc(b1-3)Gal(b1-3)[Fuc(a1-4)]GlcNAc", "in_short": "as §1"}, "[29]": {"molecular_target": "Gal(b1-3)[Fuc(a1-4)]GlcNAc(b1-3)Gal(b1-4)[Fuc(a1-3)]GlcNAc", "in_short": "as §1"}, "[30]": {"molecular_target": "Gal(b1-3)[Fuc(a1-4)]GlcNAc(b1-6)GalNAc", "in_short": "as §1"}, "[31]": {"molecular_target": "Gal(b1-3)[GlcNAc(b1-6)]GalNAc", "in_short": "as §1"}, "[32]": {"molecular_target": "Gal(b1-3)[Neu5Ac(a2-6)]GalNAc", "in_short": "as §1"}, "[33]": {"molecular_target": "Gal(b1-3)[Neu5Ac(a2-6)]GlcNAc(b1-4)Gal(b1-4)Glc", "in_short": "as §1"}, "[34]": {"molecular_target": "Gal(b1-3)[Neu5Ac(b2-6)]GalNAc", "in_short": "as §1"}, "Gal(b1-4)Gal": {"molecular_target": "Gal(b1-4)Gal", "in_short": "as §1"}, "[35]": {"molecular_target": "Gal(b1-4)GalNAc(a1-3)[Fuc(a1-2)]Gal(b1-4)GlcNAc", "in_short": "as §1"}, "[36]": {"molecular_target": "Gal(b1-4)GalNAc(b1-3)[Fuc(a1-2)]Gal(b1-4)GlcNAc", "in_short": "as §1"}},
  "note": "This is one part of the list.",
  "data": [
    {"binder": "FimA-N3 (Actinomyces oris) (protein) MHHHHHHSSGVDLGTENLYFQSNAGLQGAQFQLYKAKNAYANTCSNEKEGAPIAINGQTTLTTDAQGAIDIKGLFISDSIDGADRDNQVNAMERCYVLVETKAPAGYVLPAGNGAATPVKVKAGEETTDN", "values": [
      {"measurement": "glycan array binding signal (z-score)", "setting": "Gal(b1-2)Gal", "value": 0.08},
      {"measurement": "glycan array binding signal (z-score)", "setting": "Gal(b1-3)Gal", "value": -0.108},
      {"measurement": "glycan array binding signal (z-score)", "setting": "Gal(b1-3)Gal(b1-4)GlcNAc", "value": 0.999},
      {"measurement": "glycan array binding signal (z-score)", "setting": "Gal(b1-3)GalNAc", "value": 0.244},
      {"measurement": "glycan array binding signal (z-score)", "setting": "[1]", "value": -0.081},
      {"measurement": "glycan array binding signal (z-score)", "setting": "[2]", "value": 0.295},
      {"measurement": "glycan array binding signal (z-score)", "setting": "Gal(b1-3)GalNAc(b1-3)Gal", "value": -0.367},
      {"measurement": "glycan array binding signal (z-score)", "setting": "[3]", "value": 0.262},
      {"measurement": "glycan array binding signal (z-score)", "setting": "[4]", "value": 3.23},
      {"measurement": "glycan array binding signal (z-score)", "setting": "[5]", "value": -0.192},
      {"measurement": "glycan array binding signal (z-score)", "setting": "Gal(b1-3)GlcNAc", "value": -0.153},
      {"measurement": "glycan array binding signal (z-score)", "setting": "[6]", "value": 1.71},
      {"measurement": "glycan array binding signal (z-score)", "setting": "[7]", "value": -0.34},
      {"measurement": "glycan array binding signal (z-score)", "setting": "Gal(b1-3)GlcNAc(b1-2)Man", "value": -0.37},
      {"measurement": "glycan array binding signal (z-score)", "setting": "[8]", "value": -0.683},
      {"measurement": "glycan array binding signal (z-score)", "setting": "[9]", "value": -0.211},
      {"measurement": "glycan array binding signal (z-score)", "setting": "[10]", "value": 0.346},
      {"measurement": "glycan array binding signal (z-score)", "setting": "[11]", "value": -0.158},
      {"measurement": "glycan array binding signal (z-score)", "setting": "[12]", "value": 0.606},
      {"measurement": "glycan array binding signal (z-score)", "setting": "[13]", "value": -0.319},
      {"measurement": "glycan array binding signal (z-score)", "setting": "[14]", "value": -0.594},
      {"measurement": "glycan array binding signal (z-score)", "setting": "[15]", "value": -0.344},
      {"measurement": "glycan array binding signal (z-score)", "setting": "[16]", "value": 2.94},
      {"measurement": "glycan array binding signal (z-score)", "setting": "[17]", "value": 1.66},
      {"measurement": "glycan array binding signal (z-score)", "setting": "[18]", "value": -0.492},
      {"measurement": "glycan array binding signal (z-score)", "setting": "[19]", "value": 0.531},
      {"measurement": "glycan array binding signal (z-score)", "setting": "[20]", "value": -0.583},
      {"measurement": "glycan array binding signal (z-score)", "setting": "[21]", "value": -0.259},
      {"measurement": "glycan array binding signal (z-score)", "setting": "[22]", "value": -0.454},
      {"measurement": "glycan array binding signal (z-score)", "setting": "[23]", "value": -0.391},
      {"measurement": "glycan array binding signal (z-score)", "setting": "[24]", "value": -0.486},
      {"measurement": "glycan array binding signal (z-score)", "setting": "Gal(b1-3)GlcNAc6S", "value": -0.047},
      {"measurement": "glycan array binding signal (z-score)", "setting": "[25]", "value": -0.526},
      {"measurement": "glycan array binding signal (z-score)", "setting": "[26]", "value": -0.349},
      {"measurement": "glycan array binding signal (z-score)", "setting": "[27]", "value": -0.106},
      {"measurement": "glycan array binding signal (z-score)", "setting": "[28]", "value": -0.452},
      {"measurement": "glycan array binding signal (z-score)", "setting": "[29]", "value": -0.325},
      {"measurement": "glycan array binding signal (z-score)", "setting": "[30]", "value": -0.118},
      {"measurement": "glycan array binding signal (z-score)", "setting": "[31]", "value": -0.271},
      {"measurement": "glycan array binding signal (z-score)", "setting": "[32]", "value": -0.069},
      {"measurement": "glycan array binding signal (z-score)", "setting": "[33]", "value": -0.199},
      {"measurement": "glycan array binding signal (z-score)", "setting": "[34]", "value": -0.563},
      {"measurement": "glycan array binding signal (z-score)", "setting": "Gal(b1-4)Gal", "value": -0.499},
      {"measurement": "glycan array binding signal (z-score)", "setting": "[35]", "value": -0.578},
      {"measurement": "glycan array binding signal (z-score)", "setting": "[36]", "value": -0.587}
    ]}
  ]
}
